# Source: PubChem BioAssay AID686971 (National Center for Advancing Translational Sciences (NCATS), 2013)
# Among all 360,000 compounds or so, about 7,500 (2.1%) were called active. The inconclusive results got no clear call from the source; some entries with a clear call stand among them for comparison. Calls come from the whole dose curve; as a rule, active = well fitted cell-killing curve with a large enough effect; inconclusive = small, poorly fitted or top-dose-only effect, or effect the other way, or another doubt; inactive = no such curve, though single readings can be large or run the other way. Potencies of inconclusive entries are left out as doubtful fits.
# Test: qHTS for induction of synthetic lethality in tumor cells producing 2HG: qHTS for the HT-1080-IDH1KD cell line;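 for activity, negative = toxicity: 0% = DMSO wells and -100% = cell-free medium wells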
# Details: HT-1080 IDH1 knockdown viability, ATP luminescence, 48 h; activity, negative = toxicity: at 46.1 µM (top of the series) unless noted
# Outline: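 In this qHTS, HT-1080 cells depleted of IDH1 are exposed for 48 h at 37 °C to compound titrations. Toxicity is scored from CellTiter-Glo luminescence, with DMSO as full viability and medium alone as none.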
# Potency is the fitted concentration of half-maximal effect; tags give direction and shape of the fitted curve.
SMILES,"activity, negative = toxicity",Potency
Cc1cc(C)cc(NC(=O)c2ccc(S(=O)(=O)C(F)F)cc2)c1,inactive: 5.05%,–
Cc1ccc(N(Cc2ccc([N+](=O)[O-])cc2)C(=O)c2ccco2)cc1,inactive: -1.52%,–
O=[N+]([O-])c1cc([N+](=O)[O-])c2cc3ccccc3nc2c1,–,active: 4.61 µM
COc1ccc(NC(=O)C(Sc2ccccc2)c2ccccc2)c(OC)c1 (stereo not given),–,"inconclusive [cytotoxic, partial curve]"
CC(=O)NC(c1ccco1)c1ccc2cccnc2c1O (stereo not given),–,"inconclusive [cytotoxic, partial curve]"
O=C(/C=C/NNC(=O)c1ccccc1)c1ccc([N+](=O)[O-])cc1,–,"inconclusive [cytotoxic, single point]"
Cn1c(CC(=O)Nc2ccccc2Cl)nnc1SCC(=O)Nc1nncs1,inactive: -2.96%,–
CS(=O)(=O)Nc1cccc(-c2cc(NC=O)c3ncc(-c4ccc(F)c(Cl)c4)n3c2)c1,–,"inconclusive [cytotoxic, single point]"
Cc1ccc(-n2cnc3scc(-c4cccs4)c3c2=O)cc1,–,"inconclusive [cytotoxic, single point]"
COc1ccccc1NC(=O)CNC(=O)Cn1cnc2sc(C)c(C)c2c1=O,–,"inconclusive [cytotoxic, single point]"
CC(C)C(=O)Nc1ccc(COc2ccccc2CN(Cc2ccccc2)C(=O)OC(C)(C)C)cc1,–,"inconclusive [cytotoxic, full curve, poor fit]"
COc1ccc(-c2cnn3c(N)c(S(=O)(=O)C(C)(C)C)cnc23)cc1,–,"inconclusive [cytotoxic, single point]"
CCOc1cc(-c2c(C#N)c(N)nc3c2CCCC3)ccc1O,inactive: -7.71%,–
Cc1ccc(S(=O)(=O)N2CCCC2C(=O)O)s1 (stereo not given),inactive: -2.08%,–
COC(=O)[C@]12CCCCC=C1N(Cc1ccccc1)C(=O)[C@H](CC(=O)NCc1cccc3ccccc13)C2,–,"inconclusive [cytotoxic, single point]"
COc1ccccc1-c1nnc(SC(C)C(=O)NCC2CCCO2)n1C (stereo not given),inactive: 2.8%,–
O=S(=O)(NC1CC1)c1ccc2c3c(cccc13)CC2,–,"inconclusive [cytotoxic, single point]"
O=c1c2ccccc2c(-c2ccc(O)cc2)nn1-c1cccc(C(F)(F)F)c1,–,active: 20.6 µM
COc1cccc(NC(=O)CN(C)C(=O)c2cccnc2Nc2cccc(C(F)(F)F)c2)c1,–,active: 16.4 µM
COC(=O)c1ccc(NC(=O)Cn2nc(-c3ccncc3)nc2SCC(=O)Nc2nccs2)cc1,inactive: -8.33%,–
CC(=O)N1CCN(S(=O)(=O)c2cccc(C(=O)OCC(=O)NCc3ccccc3Cl)c2)CC1,inactive: 2.2%,–
CCOC(=O)c1ccccc1NC(=O)c1ccccc1SC,–,"inconclusive [cytotoxic, single point]"
COc1ccc(CC(N)c2csc(NC(=O)NCc3ccccc3)n2)cc1 (stereo not given),–,active: 18.4 µM
COCCCn1cc(CN2CC(N3CCN(CCO)CC3)CS2(=O)=O)nn1 (stereo not given),inactive: 2.95%,–

SMILES,"activity, negative = toxicity",Potency
CCOc1ccc2nc(N(CCCN(C)C)C(=O)c3ccc(S(=O)(=O)N4CCc5ccccc5C4)cc3)sc2c1,–,"inconclusive [cytotoxic, single point]"
CC(=O)c1sc2c(c1OC(=O)c1ccc(Cl)cc1Cl)c(=O)n(-c1ccccc1)c(=S)n2-c1ccccc1,–,active: 2.59 µM
COc1ccc(C(C)(O)c2nc(-c3ccc4ccccc4c3)cs2)cc1 (stereo not given),–,"inconclusive [cytotoxic, single point]"
Cc1ccc(NC2=C(Cl)C(=O)OC2OC(=O)c2ccco2)cc1 (stereo not given),–,active: 10 µM
CC(=O)Oc1ccc2c(c1)O/C(=C\c1ccncc1)C2=O,inactive: -8.5%,–
CC(C)C1C(=O)N(Cc2cn(CC3CCCCC3)nn2)CCS(=O)(=O)N1Cc1ccc(-c2ccc(Cl)cc2)cc1 (stereo not given),–,"inconclusive [cytotoxic, single point]"
CCNC(=S)Nc1ccc(N(c2ccccc2)C(C)C)cc1,–,"inconclusive [cytotoxic, single point]"
COc1cc(OC)c2c(-c3cccc(-c4ccc(C(C)=O)cc4)c3)cc(=O)oc2c1,–,active: 3.26 µM
CCOC(=O)c1c(CNCCN(CC)CC)n(C)c2cc(Br)c(OC)cc12,–,"inconclusive [cytotoxic, single point]"
COc1ccc([C@H]2C[C@@H](O)[C@H](n3cc(C4CC4)nn3)CN2C(=O)C2CCCCC2)cc1,inactive: -10.9%,–
COc1cccc(C(c2nnnn2-c2c(C)cccc2C)N2CCN(C/C=C/c3ccccc3)CC2)c1OC (stereo not given),–,"inconclusive [cytotoxic, single point]"
OC(c1ccc(-c2ccccc2)cc1)c1ncc(-c2cccc(F)c2)[nH]1 (stereo not given),–,"inconclusive [cytotoxic, single point]"
CN(C)CCC(=O)N1C/C(=C/c2ccccc2)C(=O)/C(=C\c2ccccc2)C1,–,active: 0.58 µM
COc1ccc(NC(=O)COC(=O)Cc2ccc(Br)cc2)cc1,inactive: 13.8%,–
Cc1ccc2nc3c(c(Nc4ccccc4)c2c1)CCC3,–,"inconclusive [cytotoxic, single point]"
Cc1ccc2occ(/C=N/NC(N)=S)c(=O)c2c1,inactive: 2.85%,–
CCN1CCN(C(=S)NC(=O)c2cccs2)CC1,–,"inconclusive [cytotoxic, single point]"
COc1ccc(C(=O)NC2CCCc3c2cnn3-c2cccc(C)c2C)o1 (stereo not given),–,"inconclusive [cytotoxic, partial curve]"
S=C(NCc1ccco1)Nc1ccc(Oc2ccc(Cl)cc2)cc1,–,"inconclusive [cytotoxic, single point]"
COc1ccc(-n2c(C)nc3c(cnn3-c3ccc(Cl)cc3)c2=O)cc1,–,"inconclusive [cytotoxic, single point]"
N/C(CC(=O)Nc1ccc(F)c(Cl)c1)=N\OC(=O)c1cccs1,–,"inconclusive [cytotoxic, partial curve]"
Nc1nnnn1/N=C/c1cccc(Oc2ccccc2)c1,inactive: 4.34%,–
CCOc1nc(C)ccc1-c1noc(-c2ccccc2OC)n1,inactive: 11.1%,–
COc1ccc(C2CC(c3ccc(Br)cc3)=NN2C(=O)CSC2=NCCS2)cc1 (stereo not given),–,"inconclusive [cytotoxic, single point]"

SMILES,"activity, negative = toxicity",Potency
COc1cc(C2(c3ccc(O)c(OC)c3)C(=O)N(C)c3ccc(Br)cc32)ccc1O,–,"inconclusive [cytotoxic, single point]"
Cc1cc(C(=O)COc2ccc(-c3nnco3)cc2)c(C)n1Cc1ccccc1,–,"inconclusive [cytotoxic, single point]"
COc1ccc(C(=O)NCc2csc(-c3cccs3)n2)cc1,inactive: 7.46%,–
COc1cccc(S(=O)(=O)Nc2ccc3c(c2)C(=O)N(C)C[C@H](OC)[C@H](C)CN(Cc2ccccc2F)[C@@H](C)CO3)c1,–,"inconclusive [cytotoxic, single point]"
Cc1c(Cl)c([N+](=O)[O-])nn1Cc1ccc(C(=O)N/N=C\c2cc(Cl)ccc2O)o1,–,"inconclusive [cytotoxic, full curve]"
CCCC(=O)N1CCC1(C)C(=O)Nc1ccc(OC)c(OC)c1 (stereo not given),–,"inconclusive [rising, single point]"
O=C(C[C@H]1C[C@@H]2c3cc(NC(=O)Nc4ccccc4)ccc3O[C@@H]2[C@@H](CO)O1)NCC1CC1,–,"inconclusive [cytotoxic, single point]"
CCN(CC)S(=O)(=O)c1ccc(NC(=O)c2cccnc2Cl)c(NC(=O)c2cccnc2Cl)c1,–,"inconclusive [cytotoxic, single point]"
CC(C)(C)NC(=O)C(c1ccnc2ccccc12)n1c(=O)c(-c2cc3ccccc3[nH]2)nc2ccccc21 (stereo not given),–,active: 23.1 µM
C=CCNC(=S)N/N=C/c1ccc(-c2ccc(OC)cc2)o1,–,"inconclusive [cytotoxic, single point]"
Cc1cccc(-n2ncc3c(Nc4ccc(F)cc4)ncnc32)c1,inactive: -7.59%,–
O=C1CCC/C(=N/NC(=O)c2ccc(CN3c4cccc5cccc(c45)S3(=O)=O)cc2)C1,inactive: 3.44%,–
CCn1c(COc2ccccc2)nnc1SCC(=O)CC(=O)Nc1ccccc1OC,inactive: 0.811%,–
CC(C)c1ccc(/C=C/C(=O)n2nnc3ccccc32)cc1,–,"inconclusive [cytotoxic, single point]"
Cc1ccc(NC(=O)CSc2nc3ccccc3c3nc(CCc4c(C)n[nH]c4C)nn23)cc1F,–,active: 7.94 µM
O=C1C(=O)c2ccccc2C(O)=C1c1cccc([N+](=O)[O-])c1,–,"inconclusive [cytotoxic, single point]"
N#CCC(=O)Nc1ccc(C(=O)OCc2ccccc2Oc2ccccc2)cc1,–,"inconclusive [cytotoxic, single point]"
CCc1ccc(-c2csc(NC(=O)C3=NN(c4ccccc4)C(=O)CC3)n2)cc1,–,"inconclusive [cytotoxic, single point]"
CCN(CC)S(=O)(=O)c1ccc(N2CCN(C)CC2)c(NC(=O)Nc2ccccc2F)c1,–,"inconclusive [cytotoxic, single point]"
COc1cc(CCNC2=CC(=O)c3ncccc3C2=O)ccc1O,–,active: 14.6 µM
COc1ccc(NC(=O)C(=O)c2cn(CC(=O)N3CCCC3)c3ccccc23)cc1,–,active: 0.366 µM
CC(C)Oc1cc(F)ccc1-c1cc(C(=O)Nc2cccc(C(F)(F)F)c2)[nH]n1,–,"inconclusive [cytotoxic, single point]"
